Source: publication PMC4336329 (PLoS ONE, 2015)
Among all 310,000 compounds or so, about 14,000 (4.5%) showed an effect of 50% or more. The effect is printed as a negative number. Some of the results follow.

What follows are compounds tested against human ether-à-go-go-related gene (hERG) potassium channel (human, UniProt Q12809) (assay: primary screen, population patch clamp on CHO cells stably expressing hERG).
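Further: peak tail current of the secondary pulse compared with the same well before compound.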

human ether-à-go-go-related gene (hERG) potassium channel, sequence (Q12809 whole entry, looked up): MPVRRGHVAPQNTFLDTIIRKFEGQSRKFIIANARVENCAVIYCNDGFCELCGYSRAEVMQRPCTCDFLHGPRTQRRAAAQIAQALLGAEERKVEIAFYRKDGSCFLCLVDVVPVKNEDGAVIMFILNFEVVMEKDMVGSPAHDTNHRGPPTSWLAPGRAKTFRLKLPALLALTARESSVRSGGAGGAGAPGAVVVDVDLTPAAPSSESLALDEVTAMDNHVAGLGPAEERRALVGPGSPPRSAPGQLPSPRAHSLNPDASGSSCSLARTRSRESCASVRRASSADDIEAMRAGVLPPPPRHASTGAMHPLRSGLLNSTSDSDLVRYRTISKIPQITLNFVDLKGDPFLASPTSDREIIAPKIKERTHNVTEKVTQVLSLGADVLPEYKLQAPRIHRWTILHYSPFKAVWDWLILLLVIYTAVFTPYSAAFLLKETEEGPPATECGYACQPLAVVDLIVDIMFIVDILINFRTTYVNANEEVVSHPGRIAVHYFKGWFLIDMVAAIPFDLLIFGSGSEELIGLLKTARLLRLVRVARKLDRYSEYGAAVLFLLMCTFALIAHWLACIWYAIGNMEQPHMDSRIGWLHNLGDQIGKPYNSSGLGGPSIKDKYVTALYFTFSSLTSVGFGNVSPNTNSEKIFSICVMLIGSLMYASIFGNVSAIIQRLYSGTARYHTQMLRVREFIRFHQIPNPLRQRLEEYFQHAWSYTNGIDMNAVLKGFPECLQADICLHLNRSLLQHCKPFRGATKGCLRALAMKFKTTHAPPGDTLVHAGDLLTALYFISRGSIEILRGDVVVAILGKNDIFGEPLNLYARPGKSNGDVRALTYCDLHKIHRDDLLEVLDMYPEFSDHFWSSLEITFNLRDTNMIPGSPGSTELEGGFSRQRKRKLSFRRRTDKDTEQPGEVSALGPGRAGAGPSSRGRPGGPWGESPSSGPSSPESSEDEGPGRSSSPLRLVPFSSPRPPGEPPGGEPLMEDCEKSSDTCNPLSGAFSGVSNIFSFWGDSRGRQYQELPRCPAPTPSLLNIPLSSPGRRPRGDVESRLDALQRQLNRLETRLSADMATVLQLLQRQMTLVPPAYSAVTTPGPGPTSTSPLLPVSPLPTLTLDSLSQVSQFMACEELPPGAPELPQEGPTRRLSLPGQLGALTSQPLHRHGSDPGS

Compound	hERG current change (%, negative = inhibition) at 10uM [%]
CC1(C)CC(=O)C=C(Nc2ccc(Br)cc2F)C1	1.23
Cc1occc1-c1nnc(SCC(=O)N2CCOCC2)o1	4.92
COCC(=O)Nc1nnc(SCC(=O)NCc2cccs2)s1	7.54
NC(=S)N/N=C/c1ccccc1OC(=O)/C=C/c1ccccc1	-0.227
COc1ccc(NC(=O)c2sccc2C)c([N+](=O)[O-])c1	13.2
Cc1cccc(OCC(=O)NCC(=O)N/N=C/c2c(C)[nH]c3ccccc23)c1	-4.32
Cc1nn(CC(C)C)c(=S)[nH]c1=O	-2.44
CCOC(=O)/C(=N/Nc1ccccc1)Sc1nnnn1-c1ccc(C)cc1	1.3
COC(=O)c1cccc(NC(=O)CSc2nnc(C)n2Cc2ccccc2)c1	-15.2
Cc1ccc(C)c(NC(=O)CN(C)C(=O)c2ccncc2)c1	12.7
COc1ccc(-c2noc(CNC(=O)c3ccc4c(c3)OCO4)n2)cc1OC	11.9
CCOC(=O)COc1cc(Br)c(C2NC(=O)NC(C)=C2C(C)=O)cc1OCC (centres unmarked)	15.7
COc1cc(NS(=O)(=O)c2ccc(NC(=O)/C=C/c3cccc([N+](=O)[O-])c3)cc2)ncn1	7.27
Cc1ccc(-c2nc3ccccc3c(=O)n2NC(=O)c2cccs2)cc1	4.29
CCN(CC)CCN1C(=O)C(=O)/C(=C(/O)c2c(C)[nH]c(C(=O)OC)c2C)C1c1cccc(OC)c1 (centres unmarked)	-0.157
O=C(Nc1ccc(Cl)cn1)C1COc2ccccc2O1 (centres unmarked)	14.2
CCCC(C(=O)NCCC(C)C)N(Cc1ccccc1Cl)C(=O)c1snc(C(N)=O)c1N (centres unmarked)	0.597
O=C1/C(=C\Nc2ccccc2)CCN1c1ncccn1	5.84
Cc1cc2nc(C)c3c(n2n1)CCC3	16.3
COc1ccc(OCC(=O)c2c(O)c3ccccc3oc2=O)cc1	-12.4
CC(=O)N1CCc2cc(S(=O)(=O)CCC(=O)N3CCN(c4ccccc4F)CC3)ccc21	6.13
Cn1ccnc1C(=O)c1cc(SCC(=O)NC2CC2)nc2ccccc12	19

Compound	hERG current change (%, negative = inhibition) at 10uM [%]
CCOc1ccc(/C=N/OCC(=O)NCc2cccs2)cc1	-11.6
CN(CCc1cnn(C)c1)Cc1cn(C)nc1-c1ccc2c(c1)OCCO2	5.94
CNC[C@@H](Cc1ccccc1)NC[C@@H](CC1CCCCC1)NCCCc1ccccc1	-2.64
CC(=O)c1ccc(S(=O)(=O)N2CCCC(N(C)CCc3ccccn3)C2)cc1 (centres unmarked)	-65.3
O=C(CSCC(=O)OCC(=O)c1ccc(Br)cc1)Nc1ccc(Br)cc1	3.17
CC(C)C[C@H](NC(=O)c1[nH]cnc1C(=O)Nc1ccc(Cl)cc1)C(=O)OC(C)(C)C	21.2
CCOc1ccc(NC(=O)CN(C)C(=O)c2cc([N+](=O)[O-])ccc2N2CCOCC2)cc1OCC	-52.5
O=C(O)C(=O)O.O=C(c1cccnc1)N1CCN(Cc2cccc(Br)c2)CC1	-18
CC1CCN(S(=O)(=O)c2ccc3c(c2)n(C)c(=O)n3C)CC1	-14.6
CN(C)S(=O)(=O)c1cccc(NC(=O)CSc2nncn2-c2ccccc2)c1	-6.41
O=C(c1ccco1)[C@@H]1[C@@H]2C(=O)N(c3ccc(F)cc3)C(=O)[C@@H]2C2c3ccccc3C=CN21 (some centres unmarked)	5.7
Cc1ccc(/C=C2\SC(=S)N(CCC(=O)NNC(=O)c3cccc(O)c3)C2=O)cc1	10.3
CC1=CC(C)(C)N(C(=O)C(C)N2C(=O)c3ccccc3C2=O)c2ccc(C)cc21 (centres unmarked)	2.88
CC(C)NC(=O)CC(=O)N/N=C/c1ccc(Br)cc1	-3.25
COc1ccc(OC)c(Cc2nnc(CCC(=O)NC3CCCCC3)o2)c1	21.4
Cc1nn(CC(=O)Nc2ccc(C(=O)N3CCCCC3)cc2)c(=O)c2ccccc12	-9.2
Cc1nn(-c2ccccc2)c2[nH]c(C(F)(F)F)cc(=O)c12	-12.5
COc1ccc(N2CCN(S(=O)(=O)c3ccc4c(c3)NC(=O)C(C)C(=O)N4)CC2)cc1 (centres unmarked)	9.78
COCCNC(=S)N/N=C/c1c(C)[nH]c2ccccc12	-0.503
COc1cc(C2C(C#N)=C(N)Oc3cc(O)ccc32)cc2c1OCO2 (centres unmarked)	-17.6
CC1CC(CC(C)C(=O)NC(=S)Nc2ccc(S(N)(=O)=O)cc2)C(=O)O1 (centres unmarked)	17.1
Cc1oc(-c2ccccc2)nc1CSc1nc2c(c(=O)[nH]1)CCC2	-2.57
